Assay results from PubChem BioAssay (NCI).
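Values below derive from 48-hour exposures of cells grown in 96-well plates, with endpoints linearly interpolated between the two concentrations bracketing the appropriate inhibition level. Here, GI50 denotes the concentration required for 50% inhibition of growth. TGI: concentration producing complete growth inhibition.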

System: NCI-H322M lung
Assay: NCI anticancer screen, dose series, 48 h

For `O=C(CCCCCCNC(=O)C(O)(O)C(F)(F)F)Nc1nc2ccccc2s1`, the GI50 was 5.06 µM and the TGI was greater than 29.8 µM.
